Measured values: PubChem BioAssay AID1794842 (National Center for Advancing Translational Sciences (NCATS), 2023)
The campaign covered roughly 2,800 compounds. Fewer than 10 were called active. Calls come from the whole dose curve; as a rule, active = well fitted curve in the direction sought with a large enough effect; inconclusive = small, poorly fitted or top-dose-only effect, or another doubt; inactive = no such curve, though single readings can be large or run the other way. This is one part of the list.

Target: Metallo-beta-lactamase type 2 (Klebsiella pneumoniae) (UniProt C7C422)
Chain of UniProt C7C422 (C7C422 whole entry, looked up): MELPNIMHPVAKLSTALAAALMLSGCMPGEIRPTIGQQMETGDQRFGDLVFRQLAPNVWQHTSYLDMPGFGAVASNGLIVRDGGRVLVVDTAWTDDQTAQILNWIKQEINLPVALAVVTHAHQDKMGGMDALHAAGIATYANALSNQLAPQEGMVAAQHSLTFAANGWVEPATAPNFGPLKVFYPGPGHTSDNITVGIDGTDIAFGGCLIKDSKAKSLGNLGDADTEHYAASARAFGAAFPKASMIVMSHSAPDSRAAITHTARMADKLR
Assay: qHTS to identify inhibitors of the New Delhi Metallo-beta-lactamase (NDM): Meropenem screen against the machine-based learning selections. Note: % of control where 0% means no effect.
Settings: Purified NDM-1, meropenem hydrolysis, absorbance 300 nm; at 38.4 µM (top of the series) unless noted
Summary of the method: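 Hydrolysis by 2 nM NDM-1 was followed by absorbance after >30 min compound preincubation in HEPES pH 7.0 buffer with 1 uM Zn2SO4. For nitrocefin (16.7 uM, 15 min, 485 nm) and meropenem (50 uM, 30 min, 300 nm), each substrate ran on separate plates.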

Activity change, negative = inhibition, inactive:
CC1=NOC2(CCN(C(=O)c3ccc(C)cc3)CC2)C1 -1.59% [at 57.5 µM], CC(C)c1ccc(Nc2n[nH]c(C(O)c3ccccc3)n2)cc1 (stereo not drawn) 0.347% [at 57.5 µM], CN(C)C(=O)NC1CCN(c2nc3ncccc3o2)CC1 18.2% [at 57.5 µM], Cn1nc(C2CCN(C(=O)c3cccc(Cl)c3)CC2)[nH]c1=O -1.52% [at 57.5 µM], CCNC(=O)[C@@H]1C[C@@H](NC(=O)c2csc(C)c2CC)CN1C1CCCC1 2.31%, Cc1ccc(CN2C(=O)[C@@H]3C[C@@H](O)CN3C3(CN(Cc4ccncc4)C3)C2=O)o1 17% [at 57.5 µM], CN(C)c1cccc(NC(=O)Cc2c[nH]c3ncc(-c4ccccc4)cc23)c1 2.03% [at 57.5 µM], Oc1ccccc1CN1CCOC[C@H]1c1ncc(-c2cccc(Cl)c2)[nH]1 9.9% [at 57.5 µM], CN(C)c1ccc(CN2Cc3[nH]cnc3C[C@H]2c2nc(-c3ccccc3)no2)cc1 25.6% [at 57.5 µM], COc1ccc(-c2nc3c(c(-c4ccccc4)n2)CN(C(=O)c2cccc(Cl)c2)CC3)cc1 7.95%, CN(C)c1cccc(-c2cnc(Nc3cccc(N[S+](C)(=O)[O-])c3)c3c2CCO3)c1 15.1% [at 57.5 µM], COc1ccc(CNC(=O)CC[C@H]2CNC(=O)[C@@H]3[C@@H](CCN3C(C)C)N2C)cc1 0.689% [at 57.5 µM], CC(C)(O)C#Cc1ccc(CN2CCC(CO)(CCCc3ccccc3)CC2)s1 0.33%, Cn1c(CN2CCOCC2)nnc1C1CCCN(C(=O)CNC(N)=O)C1 (stereo not drawn) -2.53%, CN1C[C@H](NCc2nccn2C)CCC[C@@H](C(=O)NCc2cc(F)cc(F)c2)CC1=O 2.74% [at 57.5 µM], Cc1ccc2nc(C3CCCN(Cc4ccc(-c5cncnc5)cc4)C3)[nH]c(=O)c2c1 (stereo not drawn) 2.52%, O=C(Cc1c[nH]c2ncc(-c3ccccc3C(F)(F)F)cc12)NCc1cccnc1 7.58% [at 57.5 µM], CC[C@@]1(O)CCN(C(=O)c2cccc(CCC(C)(C)O)c2)C[C@H]1O 1.82%, CC1=C[C@@H](CN2CCN(c3ccccn3)CC2)[C@H](C(C)C)C[C@H]1Cc1nnc(-c2ccccc2)o1 0.468%, COc1ccc(C2Cn3cnc(C(=O)N4CCC(C(=O)Nc5ccc(C)cc5C)CC4)c3CO2)cc1 (stereo not drawn) 0.873%, O[C@@H]1CC(CNCc2cccc(Cl)c2)(COc2ccccc2)C[C@@H]1O (stereo partly drawn) 5.41% [at 57.5 µM], COc1ccc(Nc2cnc3ccc(-c4cccc(CO)c4)nn23)cn1 59.5% [at 57.5 µM], Cn1c([C@H]2CCN(C(=O)COc3ccccc3)C2)nc2ccccc21 3.96% [at 57.5 µM], Cc1nccnc1CN1CCC2(CC1)CCN(Cc1ncc[nH]1)CC2CO (stereo not drawn) 3.76%, O=C1Nc2ccc(-c3ccc4c(c3)OCO4)cc2C(=O)N2CCN(C(=O)C3CCCC3)C[C@@H]12 0.744%, COc1ccc2[nH]c3c(c2c1)CCN(C)C31CCN(C(=O)c2ccc3ncccc3c2)CC1 0.291%, O=C(NC[C@H]1O[C@H](Cc2cc(-c3ccc(F)cc3)on2)CC[C@@H]1O)c1ccncc1 0.934% [at 57.5 µM], CC(=O)N1CCN([C@H]2[C@@H]3OC[C@@H](O3)[C@@H](NCc3cnc4ccccc4c3)[C@@H]2O)CC1 0.926% [at 57.5 µM], CNC(=O)[C@@H]1C[C@@H](n2cc(CNC(=O)Cc3ccccc3)nn2)CN1 48.5%, O=C(COc1ccccc1)N1CCOC[C@H](Oc2ccccc2)C1 0.0193% [at 57.5 µM], CCc1cc(=O)n(CC(=O)Nc2ccc(C(C)C)cc2)c(N2CCOCC2)n1 2.79%, O=C(c1ccc(Oc2ccccc2)cc1)N1CCNc2cnc(Nc3cccnc3)nc2C1 3.69%, c1cc(-c2n[nH]c(CNC3CCC4(CCNCC4)CC3)n2)ccn1 33.1%, Cc1ccc2nc([C@H]3CCN(C4CCC4)C3)[nH]c2c1 3.27% [at 76.7 µM], O=C(Nc1ccccc1)c1ccc(-c2cccc3c2CCNC3)o1 7.12%, O=C(NC(C(=O)N1CCCCC1)C1CCN(C(=O)CCc2ccccc2)CC1)c1cccs1 (stereo not drawn) 2.77%, c1cncc(CN2CC[C@H](c3nc4ccccc4[nH]3)C2)c1 -2.04% [at 76.7 µM], c1ccc(-c2[nH]nc3ncc(-c4cn[nH]c4)nc23)cc1 0.186% [at 76.7 µM], CCN(CC)C(=O)[C@@H]1CCC[C@@H](NC(=O)c2cncnc2)CN(C)C(=O)C1 1.04% [at 57.5 µM], O=C(NCCc1ccccn1)c1nc(-c2ccccc2)cc2[nH]ccc12 2.84% [at 57.5 µM], NCCN1C(=O)CC[C@H]2CN(C(=O)C3(c4ccccc4)CC3)CC[C@H]21 13.1%, O=C(NCCc1cnc[nH]1)c1nc(-c2ccccc2)cc2[nH]ccc12 9.05% [at 57.5 µM], Cc1noc2c(-c3cccnc3)cc(-c3cccs3)nc12 5.01% [at 57.5 µM], c1csc(CN2Cc3[nH]cnc3C[C@H]2c2nc(-c3ccc4c(c3)OCO4)no2)c1 13.3% [at 57.5 µM], O=C(C[C@@H]1CCNC[C@@H]1Cc1cc(CC2CCCCC2)on1)NCc1ccco1 -4.51% [at 57.5 µM], Cc1ccccc1-c1cnc2[nH]cc(CC(=O)NC3CC3)c2c1 -0.864% [at 57.5 µM], COc1ccc(S(=O)(=O)N2CC[C@H](NC(=O)c3ccncc3)C[C@H]2C(=O)N[C@@H](CC2CCCCC2)C(N)=O)cc1 1.02%, O=C(O)[C@H]1C[C@H](C(=O)NCc2ccccn2)CN(C(=O)CC2CCCC2)C1 0.78%
